Biological target: SARS-CoV-2 spike protein (Severe acute respiratory syndrome coronavirus 2, UniProt P0DTC2)
Settings: 1% NCT, 30 min, 37° C.

## O=S(=O)(O)CCNCl [NCT, N-chlorotaurine]
  methionines oxidized: Two
  oxidation of cysteine: No oxidation of cysteine could be detected
  tryptophan chlorinated: one
  tyrosines chlorinated: 18

Source: US12171732B2, “Compositions and use of N-chlorotaurine for treatment and prevention of respiratory infections” (priority 2021, dated 2024)
